Assay results reported in PMC4336329 (PLoS ONE, 2015).
Screen size: about 310,000 compounds; about 2,200 (0.71%) showed an effect of 50% or more. The effect is printed as a negative number. The list shows a part of the results.

The compounds below were run against human ether-à-go-go-related gene (hERG) potassium channel (human, UniProt Q12809) (assay: primary screen, population patch clamp on CHO cells stably expressing hERG).
Sequence of human ether-à-go-go-related gene (hERG) potassium channel (Q12809 whole entry, looked up): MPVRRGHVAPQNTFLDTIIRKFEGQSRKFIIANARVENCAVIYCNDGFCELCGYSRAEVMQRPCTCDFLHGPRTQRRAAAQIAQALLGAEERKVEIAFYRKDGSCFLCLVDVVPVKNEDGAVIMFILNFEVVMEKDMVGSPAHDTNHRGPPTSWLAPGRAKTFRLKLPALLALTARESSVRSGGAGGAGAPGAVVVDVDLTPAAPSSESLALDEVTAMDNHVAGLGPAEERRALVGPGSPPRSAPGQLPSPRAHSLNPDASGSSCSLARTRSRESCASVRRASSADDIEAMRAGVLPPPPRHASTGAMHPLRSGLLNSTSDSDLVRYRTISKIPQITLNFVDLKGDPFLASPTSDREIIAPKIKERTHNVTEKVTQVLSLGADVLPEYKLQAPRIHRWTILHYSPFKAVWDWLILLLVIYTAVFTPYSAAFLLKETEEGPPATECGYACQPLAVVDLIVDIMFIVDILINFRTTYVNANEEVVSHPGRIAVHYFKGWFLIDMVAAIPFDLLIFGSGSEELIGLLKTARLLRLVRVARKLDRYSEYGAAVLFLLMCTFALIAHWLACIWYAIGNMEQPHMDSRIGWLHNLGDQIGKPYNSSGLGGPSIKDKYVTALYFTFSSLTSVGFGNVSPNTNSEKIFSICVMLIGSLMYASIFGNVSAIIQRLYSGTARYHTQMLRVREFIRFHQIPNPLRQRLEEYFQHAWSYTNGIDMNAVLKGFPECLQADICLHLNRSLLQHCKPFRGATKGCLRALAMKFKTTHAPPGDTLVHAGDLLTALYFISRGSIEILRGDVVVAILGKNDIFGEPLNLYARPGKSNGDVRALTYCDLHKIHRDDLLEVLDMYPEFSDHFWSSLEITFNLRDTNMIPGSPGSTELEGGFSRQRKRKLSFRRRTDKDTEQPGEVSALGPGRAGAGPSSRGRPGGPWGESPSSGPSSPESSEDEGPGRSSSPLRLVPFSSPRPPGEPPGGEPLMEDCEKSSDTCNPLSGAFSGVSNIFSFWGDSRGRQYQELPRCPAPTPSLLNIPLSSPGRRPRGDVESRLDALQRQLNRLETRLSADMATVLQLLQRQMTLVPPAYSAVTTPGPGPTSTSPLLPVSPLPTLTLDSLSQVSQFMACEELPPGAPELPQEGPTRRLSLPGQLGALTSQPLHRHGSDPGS

Structure (SMILES)	hERG current change (%, negative = inhibition) at 1uM [%]
CCC1CCCCN1Cc1ccc(N)cc1 (centres unmarked)	-0.974
O=C(CCN1C(=O)/C(=C/c2cccs2)SC1=S)Nc1cccc(C(=O)O)c1	18.6
Cc1nc(SCC(=O)NCC2CCCO2)c2c3c(sc2n1)CCC3 (centres unmarked)	-4.41
O=C(CC1CCCC1)N1CCCC(Nc2ccc(F)cc2)C1 (centres unmarked)	10.4
COC(=O)CCCC[C@H]1SC[C@H]2NC(=O)N[C@]21O	7.23
COc1cccc(-n2nnc3c(=O)n(Cc4ccc(Br)cc4)cnc32)c1	1.13
CC(Sc1nnnn1C1CC1)C(=O)N1CC(=O)Nc2ccccc21 (centres unmarked)	16.6
CC(C)NS(=O)(=O)c1ccc(OCC(=O)NC(C)c2ccccc2)cc1 (centres unmarked)	-4.86
O=C(CCC(=O)N1CCN(C2CCCC2)CC1)Nc1nnc(C(F)(F)F)s1	13
O=C(Nc1ccccc1)N1CCN(c2nc(-c3ccccc3)ns2)CC1	2.1
CCOc1c2ccc(C(=O)NCC34CC5CC(CC(C5)C3)C4)cc2nn1CC	5.36
O=C(COc1ncnc2c1cnn2-c1ccccc1)Nc1ccc(S(=O)(=O)N2CCCCC2)cc1	-1.32
O=S(=O)(CCCc1ccccc1)c1ncn[nH]1	13.9
CCOc1nc(OCC)nc(N2CCC(C)CC2)n1	4.4
CCCCN(C(=O)C1CCC1)c1c(N)n(CC(C)C)c(=O)[nH]c1=O	8.99
COc1ccc(Cn2c(-c3ccc(Cl)cc3)c[n+]3ccccc23)cc1.[Br-]	1.57
Cn1c(=O)cc(OCC(=O)NCCCN2CCN(c3ccccc3F)CC2)c2ccccc21	-10.2
O=C(CSc1nnc(NC(=O)c2ccccc2F)s1)NCC1CCCO1 (centres unmarked)	7.71
COc1ccc(-n2c(=S)[nH]c3cc(C(=O)N4CCN(c5ccccc5)CC4)ccc3c2=O)c(OC)c1	19.9

Structure (SMILES)	hERG current change (%, negative = inhibition) at 1uM [%]
CCOc1ccc(NC(=O)CN(C)C(=O)CCCOc2ccc(Cl)c(C)c2)cc1OCC	5.83
O=C(Nc1nnc(C(F)(F)F)s1)c1ccc(N2C(=O)C3C4C=CC(C4)C3C2=O)cc1 (centres unmarked)	7.41
CC1CCCN(C(c2ccccc2)c2sc3ncnn3c2O)C1 (centres unmarked)	12.8
CCCCCCCCCCOC(=O)Cn1c(COc2ccc(C)cc2)[n+](C)c2ccccc21.[Cl-]	-56.5
CCOC(=O)c1nnc(-c2ccccc2)o1	-4.02
O=C(Nc1ccc(C(=O)N2CCCC2)cc1)c1ccccc1Br	20.4
COc1ccc(/C=c2\s/c(=C/C(=O)c3ccc(C)cc3)[nH]c2=O)cc1OC	10
N#CC1=C(N)Oc2n[nH]c(-c3ccccc3)c2C1c1ccncc1 (centres unmarked)	18.9
CC(OC(=O)c1cccc(-n2cnnn2)c1)C(=O)Nc1ccc(N(C)C)cc1 (centres unmarked)	8.23
O=C1NCCCC2c3c(cc(Br)c(O)c3Br)OC12N1CCOCC1 (centres unmarked)	-6.36
COc1cc2c(cc1OC)C(c1ccc(SC)cc1)CC(=O)N2 (centres unmarked)	-0.0781
COc1ccc(NC(=O)CCc2ccccc2)cc1S(=O)(=O)N1CCOCC1	5.25
CCN1C(=O)/C(=C2\SC(=S)N(NC(=O)c3ccccc3O)C2=O)c2ccccc21	9.82
COC(=O)c1sc2nc(C)nc(SCC(=O)Nc3sccc3C(N)=O)c2c1C	9.11
CCN1C(=O)N(CC)C2C1N(C(C)=O)C(=O)N2C(C)=O (centres unmarked)	1.09
CC1(C)CC(N=C2C([N+](=O)[O-])=CC=C3C2=NC2(CCCCC2)N3O)CC(C)(C)N1	11.6
COc1ccc(C(=O)N2CCN(c3ncccn3)CC2)cc1[N+](=O)[O-]	12.1
O=[N+]([O-])c1cc(S(=O)(=O)N2CCCCCC2)ccc1F	10.1
Cc1c(C)c(C)c(S(=O)(=O)Nc2ccc3[nH]c(=O)[nH]c3c2)c(C)c1C	15.6

Structure (SMILES)	hERG current change (%, negative = inhibition) at 1uM [%]
COc1ccc(Cl)cc1CN1C(=O)NC2(CCCCCC2)C1=O	-0.308
O=C(CCc1nc2ccccc2c(=O)[nH]1)Nc1ccccc1N1CCCC1	6.4
COc1ccccc1C(=O)NCCCn1cc(Br)c(C)n1	-5.05
COCCNc1oc(COc2cccc(C)c2)nc1C#N	7.52
Cc1cnc(C(=O)NC(C)CCc2ccccc2)cn1 (centres unmarked)	10.4
COc1ccc(NC(=S)N2CCC(NC(=O)C3CCCCC3)CC2)cc1	5.77
O=S(=O)(Nc1cccnc1)c1ccc(Cl)cc1	14.4
O=C(CSc1nc(-c2ccc(F)cc2)cc(C(F)(F)F)n1)NCCN1CCOCC1	2.93
COc1cccc(N2CCN(C(=O)CN(c3ccc(C)cc3)S(=O)(=O)c3c(C)n[nH]c3C)CC2)c1	5.03
O=C1C(=C2SCCCS2)CC/C1=C\c1ccc(F)cc1	10.6
COC(=O)C1(CC2CC(c3ccc(Cl)cc3)=NO2)CCN(C(=O)OC(C)(C)C)CC1 (centres unmarked)	10.4
COCc1nnc(NC(=O)c2ccc(Cl)cc2[N+](=O)[O-])s1	15
Cc1ccc(CN2CCNC(=O)C2CC(=O)NCc2cc(C)n(C)n2)cc1 (centres unmarked)	5.48
Cc1cccnc1NC(=O)c1cccc(S(=O)(=O)N2CCCc3ccccc32)c1	7.18
Cc1nn(C)c(Oc2ccccc2)c1CCNC(=O)C(C)(C)C	7.31
COc1ccccc1-c1nc(NC(C)=O)n[nH]1	19
COc1ccc(OC)c(S(=O)(=O)NC(N)=NCCc2ccccc2OC)c1	5.24
O=C(C1CCN(S(=O)(=O)c2ccccc2)CC1)N1CCC2(CC1)OCCO2	8.95
